# Measured values from patent US6153745A, “Relating to mutagenesis of nucleic acids” (Amersham Pharmacia Biotech UK Limited, priority 1995, dated 2000).
# How the values were obtained:
# Assay type in all cases: biochemical
# [1] = substrate: O=C1NC2=NOCCC2=CN1[C@H]1C[C@H](O)[C@@H](COP(=O)(O)OP(=O)(O)OP(=O)(O)O)O1; experiment: Steady state kinetics of insertion opposite template A or G, primed synthetic oligonucleotide templates; details: 55° C.
# Excerpt: (§1) FIGS. 5A-D show (Top): Plots of initial velocities against [dNTP] for the incorporation by Taq polymerase of dPTP opposite A (A), TTP opposite A (B), dPTP opposite G (C), and dCTP opposite G (D).
# (§2) In order to compare the relative efficiencies of insertion of dPTP opposite template adenine and guanine residues respectively, we adopted the procedure of Boosalis et al. (Boosalis et al., 1987 J. Biol. Chem. 262, 14689-14696) for the determination of steady state kinetics using one of two primed synthetic oligonucleotide templates (FIG. 5). The ^32 P-labelled primer in each case was extended by the incorporation of dGTP at two positions, followed by dPTP (template 1 and 2), TTP (template 1) or dCTP (template 2). Separation of the products by PAGE followed by quantitation of the radioactivity using a PhosphorImager allowed the determination of the initial velocities (Boosalis et al., 1987). Due to the very high extension rate of Taq polymerase, the kinetic parameters were determined at 55° C. The velocities for the insertion of the particular triphosphate opposite template (Vmax) and Km values (μM) for particular insertions were determined from non-linear regression fitting to the Michaelis-Menten equation.
# [2] = substrate: Nc1ccn([C@H]2C[C@H](O)[C@@H](COP(=O)(O)OP(=O)(O)OP(=O)(O)O)O2)c(=O)n1; experiment: as above; details: other: template G, 55° C.
# Excerpt: as §1, §2
# [3] = substrate: Cc1cn([C@H]2C[C@H](O)[C@@H](COP(=O)(O)OP(=O)(O)OP(=O)(O)O)O2)c(=O)[nH]c1=O; experiment: as above; details: other: template A, 55° C.
# Excerpt: as §1, §2
# [4] = substrate: O=C1NC2=NOCCC2=CN1[C@H]1C[C@H](O)[C@@H](COP(=O)(O)OP(=O)(O)OP(=O)(O)O)O1; experiment: Rate of DNA synthesis on primed M13 template, apparent Km; details: other: 72° C.
# Description: (§3) FIGS. 4A-C show: A time course of DNA synthesis in the presence of 12.5 μM [^32 P]dCTP, dATP, dGTP and TTP (open diamonds) or dPTP (full squares). Primed M13mp18 was used as a template for DNA synthesis in the presence of 0.3 U Taq polymerase. FIGS. 4 B and C show the rate of DNA synthesis during the first 80 seconds of the reaction in the presence of 12.5 μM dATP, dGTP and [^32 P]dCTP and the indicated concentrations of dPTP (B) and TTP (C);
# (§4) DNA synthesis was measured by the incorporation of [α-^32 P]dCTP using a primed M13 template at 72° C. Incorporation increased linearly in the first 80 seconds when either dPTP or TTP were present. In order to calculate rates of incorporation for different concentrations of substrate, time points were chosen over intervals in which both triphosphate derivatives gave a linear rate of synthesis (FIG. 4B and 4C). […] For TTP, concentrations between 1.25 and 25 μM were used to obtain measurable differences in rates of incorporation over time (FIG. 4C). The apparent Km values for TTP and dPTP were determined by analysing the experimental data by the direct linear plot method (Eisenthal and Cornish-Bowden, 1974 J. Biochem. 139, 715). […] The value for dPTP thus compares favourably with those reported in the literature (Kong et al. 1993) for the four natural dNTPs [14 μM-17 μM].
# [5] = substrate: Cc1cn([C@H]2C[C@H](O)[C@@H](COP(=O)(O)OP(=O)(O)OP(=O)(O)O)O2)c(=O)[nH]c1=O; experiment: as above; details: other: 72° C.
# Description: as §3, §4
protein,measurement,setting,value
Taq Polymerase (Thermus aquaticus) (protein) MRGMLPLFEPKGRVLLVDGHHLAYRTFHALKGLTTSRGEPVQAVYGFAKSLLKALKEDGDAVIVVFDAKAPSFRHEAYGGYKAGRAPTPEDFPRQLALIKELVDLLGLARLEVPGYEADDVLASLAKKAEKEGYEVRILTADKDLYQLLSDRIHVLHPEGYLITPAWLWEKYGLRPDQWADYRALTGDESDNLPGVKGIGEKTARKLLEEWGSLEALLKNLDRLKPAIREKILAHMDDLKLSWDLAKVRTDLPLEVDFAKRREPDRERLRAFLERLEFGSLLHEFGLLESPKALEEAPWPPPEGAFVGFVLSRKEPMWADLLALAAARGGRVHRAPEPYKALRDLKEARGLLAKDLSVLALREGLGLPPGDDPMLLAYLLDPSNTTPEGVARRYGGEWTEEAGERAALSERLFANLWGRLEGEERLLWLYREVERPLSAVLAHMEATGVRLDVAYLRALSLEVAEEIARLEAEVFRLAGHPFNLNSRDQLERVLFDELGLPAIGKTEKTGKRSTSAAVLEALREAHPIVEKILQYRELTKLKSTYIDPLPDLIHPRTGRLHTRFNQTATATGRLSSSDPNLQNIPVRTPLGQRIRRAFIAEEGWLLVALDYSQIELRVLAHLSGDENLIRVFQEGRDIHTETASWMFGVPREAVDPLMRRAAKTINFGVLYGMSAHRLSQELAIPYEEAQAFIERYFQSFPKVRAWIEKTLEEGRRRGYVETLFGRRRYVPDLEARVKSVREAAERMAFNMPVQGTAADLMKLAMVKLFPRLEEMGARMLLQVHDELVLEAPKERAEAVARLAKEVMEGVYPLAVPLEVEVGIGEDWLSAKE,Km,[1]; other: template A,5.2 µM
same,Km,[1]; other: template G,12.1 µM
same,Km,[2],2.03 µM
same,Km,[3],6.1 µM
same,Km,[4],22 µM
same,Km,[5],9.25 µM
